Laboratory results from PubChem BioAssay (NCATS).
The shares of active, inactive and inconclusive entries below differ from those in the screen. A potency beside an inconclusive call is a rough fit, not a confirmed value. Activity calls are given as the source filed them. The call rests on the fitted dose curve; in most records, active means well fitted cell-killing curve with a large enough effect; inconclusive means small, poorly fitted or top-dose-only effect; inactive means flat fitted curve, though single readings scatter.

Assay: Cell Viability - LYMP2-016 (AID 984); further: nearly all actives have a fitted effect of over 55% in size; on activity change, negative = cytotoxicity: on the % scale 0 is the no-effect control and ±100 the full control effect
Details: LYMP2-016 lymphoblastoid cell viability, qHTS; series mostly up to 92.2 µM; activity change, negative = cytotoxicity: at the top concentration
How it was run: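 Human lymphoblastoid cells (LYMP2-016), 2500/well in complete medium, preincubated 5 hr at 37 C, then compound-treated 24 hr at 37 C. Intracellular ATP read by CellTiter-Glo luminescence after 30 min at room temperature; AC50 from Hill-equation concentration-response fits.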
Potency means the concentration at half of the fitted maximal effect; tags describe the fitted curve by direction and shape.

Question: Which Potency does the source give for c1cnc2c(c1)ccc1cccnc12 here?
Answer: Its Potency is inconclusive: 25.1 µM [cytotoxic, full curve].

Question: With CN(C)c1ccc2nc3ccc(=[N+](C)C)cc-3sc2c1 as the molecule, how does the Potency read?
Answer: The Potency was active: 3.98 µM.

Question: For O=c1cc(-c2ccc(O)cc2)oc2cc(O)cc(O)c12, which Potency is on record?
Answer: Its Potency is inconclusive: 79.4 µM [cytotoxic, single point].

Question: For O=C1CN(/N=C/c2ccc([N+](=O)[O-])o2)C(=O)N1, which Potency is on record?
Answer: Its Potency is inconclusive: 50.1 µM [cytotoxic, partial curve, poor fit].

Question: With NC(=O)N/N=C/c1ccc([N+](=O)[O-])o1 as the molecule, how does the Potency read?
Answer: The Potency was inconclusive: 50.1 µM [cytotoxic, partial curve, poor fit].

Question: For O=C(O)c1cc(O)c(O)c(O)c1, which “activity change, negative = cytotoxicity” value is on record?
Answer: The value was inactive: -14.8%.

Assay: Cell Viability - LYMP2-018 (AID 985);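 further: compound exposure lasted 24 hr at 37 °C; nearly all actives have a fitted effect of over 50% in size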;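 on activity change, negative = cytotoxicity: plate controls were DMSO only for no effect and tetraoctylammonium bromide at 92 µM for full effect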
Details: LYMP2-018 lymphoblastoid cells, viability (qHTS); series mostly up to 92.2 µM; activity change, negative = cytotoxicity: at the top concentration
How it was run: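 Human lymphoblastoid cells (2500/well) were pre-incubated 5 hr at 37 C, then exposed to compounds for 24 hr at 37 C in complete medium. Viability was read as intracellular ATP by CellTiter-Glo luminescence; AC50 values came from Hill-equation fits.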

Question: Which Potency does the source give for c1cnc2c(c1)ccc1cccnc12 here?
Answer: Its Potency is active: 25.1 µM.

Question: Which Potency does the source give for O=c1cc(-c2ccc(O)cc2)oc2cc(O)cc(O)c12 here?
Answer: Its Potency is inconclusive: 50.1 µM [cytotoxic, partial curve, poor fit].

Question: Which Potency does the source give for O=C1CN(/N=C/c2ccc([N+](=O)[O-])o2)C(=O)N1 here?
Answer: Its Potency is inconclusive: 50.1 µM [cytotoxic, partial curve, poor fit].

Question: Which Potency does the source give for NC(=O)N/N=C/c1ccc([N+](=O)[O-])o1 here?
Answer: The Potency was inconclusive: 79.4 µM [cytotoxic, single point].

Question: For O=c1c(O)c(-c2ccc(O)cc2)oc2cc(O)cc(O)c12, which “activity change, negative = cytotoxicity” value is on record?
Answer: The value was inactive: -3.92%.

Question: Which Potency does the source give for CC(C)(C)c1ccc(O)c(O)c1 here?
Answer: Its Potency is inconclusive: 79.4 µM [cytotoxic, partial curve, poor fit].

Question: For Oc1ccc(O)cc1, which Potency is on record?
Answer: The Potency was inconclusive: 50.1 µM [cytotoxic, partial curve, poor fit].

Question: Which Potency does the source give for CN(C)c1ccc(C(=C2C=CC(=[N+](C)C)C=C2)c2ccccc2)cc1 here?
Answer: Its Potency is active: 0.199 µM.

Assay: Cell Viability - LYMP2-020 (AID 986); further: nearly all actives have a fitted effect of over 55% in size;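 on activity change, negative = viability loss: plate controls were DMSO only for no effect and tetraoctylammonium bromide at 92 µM for full effect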
Details: series mostly up to 92.2 µM; activity change, negative = viability loss: at the top concentration
From the text: NIH Chemical Genomics Center [NCGC]
NIH Molecular Libraries Screening Centers Network [MLSCN]
National Institutes of Environmental Health Sciences [NIEHS]
National Toxicology Program [NTP]
We have developed a 1536-well cell-based assay for quantitative high throughput screening (qHTS) against a number of cell lines to determine in vitro cytotoxicity of small molecules. This particular assay uses a human lymphoblastoid cell line (LYMP2-020) purchased from Coriell Institute for Medical Research.
NCGC Assay Protocol Summary:
The CellTiter-Glo luminescent cell viability assay (Promega) is a homogeneous method to measure the number of viable cells in culture. The end point readout of this assay is based on quantitation of intracellular ATP, an indicator of metabolic activity, using the luciferase reaction. Luciferase catalyzes the oxidation of beetle Luciferin to oxyluciferin and light in the presence of ATP. The luminescent signal is proportional to amount of ATP present.
Using the CellTiter-Glo luminescent cell viability assay, the amount of cellular ATP was measured in the lymphoblastoid cell line with complete culture medium following compound treatment for 24 hours. The assay was performed in opaque white Kalypsys 1536-well plates. In the screen, tetraoctylammonium bromide was used as positive control. Library compounds were measured for their ability to cause acute toxicity in the cell line, as reflected by a decrease in intracellular ATP levels, in a concentration-dependent manner. […] AC50 values were determined from concentration-response data modeled with the standard Hill equation.
qHTS protocol for CellTiter Glo lymphoblastoid cellular assay
[Step] [Parameter] [Value] [Description]
1. Reagent; 5 uL; 2500 lymphoblastoid cells/well
2. Time; 5 hr; 37 C incubation
4. Controls; 23 nL; Tetraoctylammonium bromide 6.4pM to 92 uM
5. Time; 24 hr; 37 C incubation
6. Reagent; 5 uL; CellTiter Glo reagent
7. Time; 30 min; Room Temperature
8. Detection; Luminescence; Viewlux plate reader
Keywords: cell viability, cytotoxicity, lymphoblastoid cell line, luminescence, NTPHTS, NTPHTS_NCGC, NIEHS, DSSTox, MLSMR, MLSCN, NIH Roadmap, qHTS, NCGC

Question: Which Potency does the source give for c1cnc2c(c1)ccc1cccnc12 here?
Answer: The Potency was inconclusive: 15.8 µM [cytotoxic, full curve].

Question: With O=c1cc(-c2ccc(O)cc2)oc2cc(O)cc(O)c12 as the molecule, how does the Potency read?
Answer: Its Potency is inconclusive: 50.1 µM [cytotoxic, partial curve, poor fit].

Question: For N=C1N=C(N)c2cc3ccccc3cc21, which Potency is on record?
Answer: Its Potency is active: 39.8 µM.

Question: Which “activity change, negative = viability loss” value does the source give for N[C@@H](Cc1c[nH]c2ccc(O)cc12)C(=O)O here?
Answer: Its value is inactive: -2.3%.

Question: With CCCOC(=O)c1ccc(O)cc1 as the molecule, how does the Potency read?
Answer: Its Potency is “inactive”.

Question: For Nc1ccccc1N, which Potency is on record?
Answer: Its Potency is inconclusive: 31.6 µM [cytotoxic, partial curve, poor fit].

Assay: Cell Viability - LYMP2-022 (AID 987); further: nearly all actives have a fitted effect of over 55% in size;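 on viability change, negative = cytotoxic: 0% = DMSO alone and full effect = tetraoctylammonium bromide at 92 µM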
Details: LYMP2-022 lymphoblastoid cell viability; series mostly up to 92.2 µM; viability change, negative = cytotoxic: at the top concentration
How it was run: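 Human lymphoblastoid cells, 2500/well, preincubated 5 hr at 37 C, then exposed to compounds over a concentration range for 24 hr at 37 C in complete medium. Viability read as intracellular ATP by CellTiter-Glo luminescence after 30 min at room temperature; AC50 from Hill fits.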

Question: With Nc1ccc(O)c(C(=O)O)c1 as the molecule, how does the “viability change, negative = cytotoxic” value read?
Answer: The value was inactive: 9.11%.

Question: For CC(=O)Nc1ccc(O)cc1, which “viability change, negative = cytotoxic” value is on record?
Answer: Its value is inactive: -9.51%.

Question: With CN(C)c1ccc2nc3ccc(=[N+](C)C)cc-3sc2c1 as the molecule, how does the Potency read?
Answer: Its Potency is active: 6.31 µM.

Question: Which Potency does the source give for O=c1cc(-c2ccc(O)cc2)oc2cc(O)cc(O)c12 here?
Answer: The Potency was inconclusive: 50.1 µM [cytotoxic, partial curve, poor fit].

Question: With O=C1CN(/N=C/c2ccc([N+](=O)[O-])o2)C(=O)N1 as the molecule, how does the Potency read?
Answer: Its Potency is inconclusive: 79.4 µM [cytotoxic, single point].

Question: Which “viability change, negative = cytotoxic” value does the source give for Cc1ccc(N)cc1O here?
Answer: The value was inactive: -14.2%.

Question: With NC(=O)N/N=C/c1ccc([N+](=O)[O-])o1 as the molecule, how does the Potency read?
Answer: Its Potency is inconclusive: 50.1 µM [cytotoxic, partial curve].

Question: Which Potency does the source give for CC(C)(C)c1ccc(O)c(O)c1 here?
Answer: The Potency was active: 39.8 µM.

Question: For Nc1ccccc1N, which Potency is on record?
Answer: Its Potency is inconclusive: 12.6 µM [cytotoxic, full curve].

Assay: Cell Viability - LYMP2-024 (AID 988); further: nearly all actives have a fitted effect of over 60% in size;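 on activity change, negative = cytotoxicity: plate controls were DMSO only for no effect and 92 µM tetraoctylammonium bromide for full effect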
Details: LYMP2-024 lymphoblastoid cell viability; series mostly up to 92.2 µM; activity change, negative = cytotoxicity: at the top concentration
How it was run: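 Human lymphoblastoid cells (2500/well) in complete medium were preincubated 5 hr at 37 C, then exposed to compounds for 24 hr at 37 C. Intracellular ATP was read by CellTiter-Glo luminescence; AC50 from Hill-equation fits of concentration-response data.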

Question: With c1cnc2c(c1)ccc1cccnc12 as the molecule, how does the Potency read?
Answer: The Potency was active: 12.6 µM.

Question: For O=c1cc(-c2ccc(O)cc2)oc2cc(O)cc(O)c12, which Potency is on record?
Answer: Its Potency is inconclusive: 50.1 µM [cytotoxic, partial curve, poor fit].

Question: For NC(=O)N/N=C/c1ccc([N+](=O)[O-])o1, which Potency is on record?
Answer: The Potency was inconclusive: 79.4 µM [cytotoxic, partial curve, poor fit].

Question: Which Potency does the source give for N=C1N=C(N)c2cc3ccccc3cc21 here?
Answer: Its Potency is active: 39.8 µM.

Question: For C#C[C@]1(O)CC[C@H]2[C@@H]3CCc4cc(O)ccc4[C@H]3CC[C@@]21C, which “activity change, negative = cytotoxicity” value is on record?
Answer: The value was inactive: -22.2%.

Question: For Nc1ccccc1N, which Potency is on record?
Answer: Its Potency is inconclusive: 31.6 µM [cytotoxic, partial curve, poor fit].

Assay: Cell Viability - LYMP2-026 (AID 989); further: nearly all actives have a fitted effect of over 50% in size
Details: LYMP2-026 lymphoblastoid cell viability, qHTS
How it was run: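 Human lymphoblastoid cells (2500/well) in complete medium were preincubated 5 hr at 37 C, then exposed to compounds for 24 hr at 37 C. Cellular ATP was read by CellTiter-Glo luminescence; AC50 from Hill-equation fits of concentration-response data.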

Question: For c1cnc2c(c1)ccc1cccnc12, which Potency is on record?
Answer: The Potency was inconclusive: 25.1 µM [cytotoxic, full curve, poor fit].

Question: Which Potency does the source give for CN(C)c1ccc2nc3ccc(=[N+](C)C)cc-3sc2c1 here?
Answer: Its Potency is active: 7.94 µM.

Question: For O=c1cc(-c2ccc(O)cc2)oc2cc(O)cc(O)c12, which Potency is on record?
Answer: Its Potency is inconclusive: 79.4 µM [cytotoxic, single point].

Question: Which Potency does the source give for O=C1CN(/N=C/c2ccc([N+](=O)[O-])o2)C(=O)N1 here?
Answer: The Potency was inconclusive: 50.1 µM [cytotoxic, partial curve, poor fit].

Question: With N=C1N=C(N)c2cc3ccccc3cc21 as the molecule, how does the Potency read?
Answer: Its Potency is active: 39.8 µM.

Question: For CC(C)(C)c1ccc(O)c(O)c1, which Potency is on record?
Answer: The Potency was inconclusive: 79.4 µM [cytotoxic, single point].

Question: For CN(C)c1ccc(C(=C2C=CC(=[N+](C)C)C=C2)c2ccccc2)cc1, which Potency is on record?
Answer: The Potency was active: 0.316 µM.

Assay: Cell Viability - LYMP1-002 - Assay at 24 hr (AID 993); on activity change, negative = cytotoxicity: on the % scale 0 is the no-effect control and ±100 the full control effect
Details: LYMP1-002 lymphoblastoid cells viability; series mostly up to 92.2 µM; activity change, negative = cytotoxicity: at the top concentration
How it was run: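 Human lymphoblastoid LYMP1-002 cells, 2500/well in complete medium, were treated with compounds for 24 h at 37 C; intracellular ATP was read by CellTiter-Glo luminescence. AC50 values came from Hill-equation fits of qHTS concentration-response data.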

Question: Which Potency does the source give for c1cnc2c(c1)ccc1cccnc12 here?
Answer: The Potency was inconclusive: 31.6 µM [cytotoxic, full curve, poor fit].

Question: For O=c1cc(-c2ccc(O)cc2)oc2cc(O)cc(O)c12, which Potency is on record?
Answer: The Potency was inconclusive: 79.4 µM [cytotoxic, single point].

Question: For NC(=O)N/N=C/c1ccc([N+](=O)[O-])o1, which “activity change, negative = cytotoxicity” value is on record?
Answer: The value was inactive: -9.83%.

Question: Which Potency does the source give for N=C1N=C(N)c2cc3ccccc3cc21 here?
Answer: Its Potency is active: 39.8 µM.

Question: Which Potency does the source give for CC(C)(C)c1ccc(O)c(O)c1 here?
Answer: Its Potency is inconclusive: 79.4 µM [cytotoxic, single point].

Question: With CN(C)c1ccc(C(=C2C=CC(=[N+](C)C)C=C2)c2ccccc2)cc1 as the molecule, how does the Potency read?
Answer: Its Potency is active: 0.794 µM.
